The values that follow come from PubChem BioAssay AID1159614 (National Center for Advancing Translational Sciences (NCATS), 2016).

About 65 (0.1%) of roughly 45,000 compounds were called active. Calls follow the shape of the dose curve; as a rule, active = well fitted activation curve with a large enough effect; inconclusive = small, poorly fitted or top-dose-only effect; inactive = no such curve, though single readings can be large or run the other way. The list shows a part of the results.

The target in this assay is Galactocerebrosidase (Homo sapiens) (UniProt P54803). The assay is described as follows: A Novel Cell-Based Assay to Identify Small Molecules for B -Galactocerebrosidase. Also: 0% is about no effect; nearly all actives have a fitted effect of over 65% in size. The settings on record: 145M-Twi-hGALC-G270D cells (Twitcher mouse brain line with human GALC G270D), HMU-beta-Gal fluorescence, 48 h; series mostly up to 57.5 µM; activation: at the top concentration. The method in brief: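 Brain-derived Twitcher mouse 145M-Twi cells stably expressing human GALC-G270D or wild-type GALC, treated live, then residual GALC activity read by fluorescence of HMU-b-Gal substrate (0.1 mM final) in citrate-phosphate buffer pH 5.2 with sodium taurocholate. Signal increase indicates enhancement.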
Chain of UniProt P54803 (P54803 whole entry, looked up): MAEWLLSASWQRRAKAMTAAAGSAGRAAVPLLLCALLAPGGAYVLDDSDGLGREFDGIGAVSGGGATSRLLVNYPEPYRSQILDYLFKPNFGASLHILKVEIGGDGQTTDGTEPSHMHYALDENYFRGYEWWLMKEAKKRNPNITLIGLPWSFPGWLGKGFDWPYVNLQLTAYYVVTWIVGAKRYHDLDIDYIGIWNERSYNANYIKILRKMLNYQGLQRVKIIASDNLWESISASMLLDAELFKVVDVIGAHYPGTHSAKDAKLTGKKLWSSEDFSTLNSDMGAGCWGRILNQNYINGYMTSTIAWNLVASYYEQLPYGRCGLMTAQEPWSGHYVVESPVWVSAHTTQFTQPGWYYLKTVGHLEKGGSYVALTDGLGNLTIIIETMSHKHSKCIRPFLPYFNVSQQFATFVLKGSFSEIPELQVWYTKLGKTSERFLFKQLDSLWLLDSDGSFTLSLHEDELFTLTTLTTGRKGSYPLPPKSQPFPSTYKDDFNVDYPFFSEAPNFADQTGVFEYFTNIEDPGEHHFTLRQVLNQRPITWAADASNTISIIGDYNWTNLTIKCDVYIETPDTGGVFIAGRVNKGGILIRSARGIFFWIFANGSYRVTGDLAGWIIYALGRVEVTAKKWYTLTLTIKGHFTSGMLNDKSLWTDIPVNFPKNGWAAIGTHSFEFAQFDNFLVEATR
Consider `CCOc1ccc(N(C)S(=O)(=O)c2ccc3c(c2)C(C)(C)C(=O)N3C)cc1`, for which the “activation” value is inactive: -8.37%.
With `Cn1c(=O)oc2cc(S(=O)(=O)CCC(=O)NCc3ccccc3)ccc21`, the “activation” value is inactive: -10.8%.
For `CCN(c1ccccc1)S(=O)(=O)c1nnc(NC(=O)COc2ccc(OC)cc2)s1` the value was inactive: 4.08%; for `CC(=O)OCC#CCSc1nnc(-c2cccc(Br)c2)o1`, inactive: -16.4%.
For the compound `CCOC(=O)c1c(C)oc2nc(C)nc(NCC3CCN(Cc4ccc(Cl)cc4)CC3)c12`, the “activation” value is inactive: -14.3%.
In the case of `COc1ccc(-c2nc3n(n2)C(c2ccc(OC)cc2)C(C(=O)Nc2cccnc2)=C(C)N3)cc1` (centres undefined), the “activation” value is inactive: -10.4%.
Turning to `CCOC(=O)c1[nH]c(C)c(CCC(=O)N2CCN(c3ccccc3)CC2)c1C`, the “activation” value was inactive: -11.6%.
Take `COCCNC(=O)C1CCN(S(=O)(=O)c2ccc3c(c2)CCCN3C(C)=O)CC1`: the “activation” value was inactive: -16.4%.
For the compound `COc1cccc(N2CC(NC(=O)c3ccc(S(=O)(=O)N4CCCC4)cc3)CC2=O)c1` (centres undefined), the “activation” value was inactive: -16.2%.
Turning to `O=C(NC1CCCC1)c1c[nH]c2ccc(S(=O)(=O)Nc3cccc(C(F)(F)F)c3)cc2c1=O`, the “activation” value was inactive: -2.53%.
Take `O=C(Cc1ccccc1)Nc1sc2c(c1C(=O)Nc1ccccc1Cl)CCC2`: the “activation” value is inactive: -2.29%.
Consider `O=c1[nH]c(=O)n([C@H]2O[C@H](CO)[C@@H](O)[C@@H]2O)cc1/C=C\Br`, for which the “activation” value is inactive: -21.2%.
On to `COc1ccc(-c2cc(NCc3ccc(F)cc3)n3cnnc3n2)cc1`, for which the “activation” value is inactive: -1.78%.
As for `Cc1cc(OCC(=O)NCC2(N3CCN(C)CC3)CCCCC2)cc(C)c1Cl`, the “activation” value was inactive: -7.5%.
Consider `Cc1ccc(-n2nc3c(N4CCC(C(=O)N5CCCCC5)CC4)nnc(C)c3c2C)cc1`, for which the “activation” value is inactive: -3.47%.
As to `Cc1ccc(NC(=O)CCc2nnc3n(CC(C)C)c(=O)c4ccccc4n23)cc1C`, the “activation” value was inactive: -6.19%.
With `COc1ccc(CNC(=O)Cn2nc(C)c3nn(-c4ccc(Cl)cc4)c(C)c3c2=O)cc1`, the “activation” value was inactive: 2.84%.
For `CCCc1cc(N2CCN(c3cc(Cl)ccc3C)CC2)n2cnnc2n1`, the “activation” value is inactive: -26.3%.
In the case of `CCCN1C(=O)C(Cc2nc3ccccc3c(=O)n2CC)c2ccccc21` (centres undefined), the “activation” value was inactive: -5.74%.
`Cc1ccc(NC(=O)CCn2cccn2)cc1Cl`: the “activation” value is inactive: -20.7%.
With `CCOc1ccc(CCNC(=O)CN2C(=O)COc3ccc(S(=O)(=O)N4CCC(C)CC4)cc32)cc1`, the “activation” value is inactive: -1.02%.
Turning to `Cc1ccc2oc(C(=O)Nc3c(C(=O)Nc4ccccc4)oc4ccccc34)cc(=O)c2c1`, the “activation” value is inactive: -10.5%.
With `CCCOc1ccc(N2CC(C(=O)Nc3cccc(Cl)c3Cl)CC2=O)cc1` (centres undefined), the “activation” value is inactive: -35.1%.
Next, `O=S(=O)(c1ccccc1)c1nnn2c1nc(NCc1cccs1)c1sccc12`: inactive: -12.6%; `CCCCN(C)c1nnc(NC(=O)Nc2cccc(C(C)=O)c2)s1`: inactive: 2.3%; `Cc1ccc(NC2=CC(c3ccccc3F)N(c3ccc(C)cc3)C2=O)cc1` (centres undefined): inactive: -25.8%.
Regarding `COC(=O)c1c(NC(=O)c2cc3nc(-c4ccc(OC)cc4)cc(C(F)(F)F)n3n2)sc2c1CCCC2`, the “activation” value is inactive: -17.6%.
On to `COc1ccc(NC(=O)Cn2c(=O)n(-c3ccccc3)c(=O)c3c4c(sc32)CCCC4)cc1`, for which the “activation” value is inactive: -13.6%.
Regarding `Cc1cc(C)cc(Nc2cc(-c3ccccc3)nc(C)n2)c1`, the “activation” value was inactive: -4.75%.
Consider `COc1ccc(-c2cc(C(=O)OCC(=O)c3ccc(C)cc3)c3cccc(Cl)c3n2)cc1`, for which the “activation” value is inactive: -6.56%.
Regarding `Cc1ccccc1-c1ncnn1-c1sc2c(c1C#N)CCCCC2`, the “activation” value was inactive: -14.1%.
Take `CC(C)Cn1c(=O)c2ccccc2n2c(CCC(=O)NCc3ccccc3Cl)nnc12`: the “activation” value was inactive: -14.9%.
For `CCOc1ccccc1NC(=O)C(Cc1ccccc1)NS(=O)(=O)c1ccc2c(c1)oc(=O)n2C` (centres undefined), the “activation” value was inactive: -19.7%.
For `COc1ccc(-c2cc3nc(C)c(CCC(=O)N4CCN(c5cccc(Cl)c5)CC4)c(C)n3n2)c(OC)c1` the value was inactive: -28.7%; for `O=C(NCc1cccs1)c1ccc2c(c1)N(Cc1ccccc1Cl)C(=O)c1ccccc1S2`, inactive: -9.43%.
In the case of `O=C(CN1C=NS(=O)(=O)c2ccccc21)Nc1ccc(F)cc1`, the “activation” value was inactive: -15.4%.
As for `O=C(CN1CCNCC1)NC1CCCCC1`, the “activation” value is inactive: -12.4%.
Next, `CC(=O)NCCNC(=O)CCCc1nnc2n(C)c(=O)c3sccc3n12`: inactive: -9.82%; `COc1ccc(CNC(=O)c2cc3cc(C)ccc3n2C)cc1`: inactive: -13%.
Take `Cc1ccc(-n2c(=O)c3c(c4cc(C)ccc4n3C)n(CC(=O)NCc3ccccc3Cl)c2=O)cc1`: the “activation” value is inactive: 2.92%.
For `CC(Nc1ccc(-c2nc(-c3ccncc3)no2)cc1[N+](=O)[O-])c1ccccc1` (centres undefined) the value was inactive: 12.1%; for `CCCCN(CCCC)C(=O)CN(C)S(=O)(=O)c1ccc2c(c1)c(=O)n(C)c(=O)n2C`, inactive: -5.58%; for `O=C(NCc1ccccc1Br)c1ccc2nc(N3CCCCC3)sc2c1`, inactive: -2.42%.
For `Cc1sc2c(c1C)c(=O)n(CCc1ccccc1)c(=O)n2Cc1cccc(F)c1`, the “activation” value was inactive: 2.81%.
As for `CC(=O)Nc1c(C)nn(-c2ccccc2)c1N1CCC(C(=O)NCc2ccc(Cl)cc2)CC1`, the “activation” value was inactive: -3.16%.
As to `Cc1cc(C)cc(N2CC(c3nc(-c4ccccc4C)no3)CC2=O)c1` (centres undefined), the “activation” value was inactive: -4.07%.
Next, `CCOC(=O)c1ccc(NC(=O)CN(c2ccc(C)cc2)S(=O)(=O)c2c(C)noc2C)cc1`: inactive: -7.08%; `Cc1nc2c(C(=O)NCCc3ccc(Cl)cc3)cnn2c(C)c1Cc1c(F)cccc1Cl`: inactive: -15.3%.
As for `Cc1cccc(NC(=O)Cn2c(=O)n(-c3ccccc3Cl)c(=O)c3c(C)c(C(=O)N(C)C)sc32)c1`, the “activation” value is inactive: -1.67%.
